Publication PMC4336329 (PLoS ONE, 2015)
Among all 310,000 compounds or so, about 2,200 (0.71%) showed an effect of 50% or more. The effect is printed as a negative number. The list shows a part of the results.

Target: human ether-à-go-go-related gene (hERG) potassium channel (human, UniProt Q12809)
Assay: primary screen, population patch clamp on CHO cells stably expressing hERG

Sequence of human ether-à-go-go-related gene (hERG) potassium channel (Q12809 whole entry, looked up): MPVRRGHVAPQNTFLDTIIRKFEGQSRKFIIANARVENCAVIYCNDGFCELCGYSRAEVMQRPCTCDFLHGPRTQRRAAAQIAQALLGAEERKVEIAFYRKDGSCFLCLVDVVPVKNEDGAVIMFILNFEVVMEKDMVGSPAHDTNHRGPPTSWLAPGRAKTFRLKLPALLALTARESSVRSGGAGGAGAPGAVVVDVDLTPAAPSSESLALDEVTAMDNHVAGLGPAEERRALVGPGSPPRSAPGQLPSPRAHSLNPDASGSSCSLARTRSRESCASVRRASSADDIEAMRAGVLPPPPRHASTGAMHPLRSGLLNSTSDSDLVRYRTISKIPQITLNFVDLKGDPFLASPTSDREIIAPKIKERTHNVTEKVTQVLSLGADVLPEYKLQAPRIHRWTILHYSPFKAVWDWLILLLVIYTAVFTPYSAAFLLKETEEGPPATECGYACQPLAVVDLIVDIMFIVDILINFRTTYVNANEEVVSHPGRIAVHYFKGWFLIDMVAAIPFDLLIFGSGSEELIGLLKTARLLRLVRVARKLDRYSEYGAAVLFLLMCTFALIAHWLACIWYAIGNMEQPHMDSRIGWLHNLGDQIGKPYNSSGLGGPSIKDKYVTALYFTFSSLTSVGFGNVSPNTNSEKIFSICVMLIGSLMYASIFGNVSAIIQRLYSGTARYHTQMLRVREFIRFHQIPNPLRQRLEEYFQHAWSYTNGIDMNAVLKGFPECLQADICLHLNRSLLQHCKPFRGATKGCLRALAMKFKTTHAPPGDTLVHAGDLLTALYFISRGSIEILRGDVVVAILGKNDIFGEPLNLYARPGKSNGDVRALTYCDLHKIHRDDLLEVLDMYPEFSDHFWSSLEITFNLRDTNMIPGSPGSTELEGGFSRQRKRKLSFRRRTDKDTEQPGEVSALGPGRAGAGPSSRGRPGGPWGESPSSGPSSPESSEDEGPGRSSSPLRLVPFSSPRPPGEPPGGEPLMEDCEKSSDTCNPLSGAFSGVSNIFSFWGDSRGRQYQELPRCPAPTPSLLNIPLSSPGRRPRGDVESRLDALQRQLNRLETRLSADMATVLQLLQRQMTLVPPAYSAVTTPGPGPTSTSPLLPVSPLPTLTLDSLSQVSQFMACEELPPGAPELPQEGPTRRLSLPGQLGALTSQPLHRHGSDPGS

Row | Structure (SMILES) | hERG current change (%, negative = inhibition) at 1uM [%]
1 | Cc1cccn2c(=O)c3cc(C(=O)NCCN4CCOCC4)c(=N)n(Cc4ccc(F)cc4)c3nc12 | -13.3
2 | CC1=CC(=C(C#N)c2nc3ccccc3s2)C=C(C)N1c1ccc(F)cc1F | 21.1
3 | CCN1C(=O)CC(N2CCN(c3ccc(Cl)cc3)CC2)C1=O (centres unmarked) | 2.82
4 | O=C(CN1C(=O)COc2ccccc21)N(Cc1cccnc1)Cc1cccc(F)c1 | -8.39
5 | O=[N+]([O-])c1ccc(N/N=C/c2ccccc2)cc1 | 12.5
6 | Cc1ccc(NC(=O)c2cc(NC(=O)C3CC=CCC3C(=O)O)ccc2N2CCOCC2)cc1Cl (centres unmarked) | 5.76
7 | OCCNc1nc(Nc2ccccc2C(F)(F)F)nc(N2CCCC2)n1 | -3.26
8 | O=C(Nc1nccs1)c1cccc(NC(=O)c2ccco2)c1 | 4.79
9 | Cc1ccc(C(C)NC(=O)c2cc(C)oc2C)cc1 (centres unmarked) | -11.5
10 | CCCC(=O)NC(c1cccs1)c1cc([N+](=O)[O-])c2cccnc2c1O (centres unmarked) | 3.68
11 | CC(C)COC(=O)n1c(SCC(N)=O)nc2ccccc21 | 9.69
12 | CNCC(O)C(O)C(O)C(O)CO (centres unmarked) | 7.67
13 | Cc1cccnc1NC(=O)CCc1nnc2ccc(N3CCC4(CC3)OCCO4)nn12 | 9.8
14 | CCN(CC(=O)Nc1c(F)cccc1F)C(=O)c1ccc(N2CCCC2)c([N+](=O)[O-])c1 | 5.73
15 | C=C(C)c1cccc(C(C)(C)NC(=O)N2CCC(C(N)=O)CC2)c1 | 6.76
16 | CCN(C(=O)c1ccco1)c1nc(-c2ccc(OC)cc2)cs1 | 9.4
17 | Cc1ccc(NC(=O)CCS(=O)(=O)c2cccc3nonc23)c(Cl)c1 | 11.5
18 | Cc1ccc(NC(=O)Cn2ccsc2=N)cc1S(=O)(=O)N(C)C.Cl | 2.73
19 | CC(OC(=O)c1ccccc1NCCO)C(=O)Nc1ccc(S(=O)(=O)N2CCOCC2)cc1 (centres unmarked) | 11.6
20 | CCCCN(C(=O)C1=COCCO1)c1c(N)n(CCC)c(=O)[nH]c1=O | 9.14
21 | COc1cccc(NC(=O)c2ccc3c(c2)CCN3S(C)(=O)=O)c1 | 14.2
22 | O=C(Nc1ccnn1C1CCN(C/C=C/c2ccccc2)CC1)c1ccccc1Cl | -92.1

Row | Structure (SMILES) | hERG current change (%, negative = inhibition) at 1uM [%]
23 | COc1nc(C)nc(C)c1Oc1ccc(Cl)cc1Cl | 12.8
24 | CC(=O)Nc1cccc(C(=O)/C=C/c2ccc(F)cc2)c1 | 3.76
25 | O=C(O)CCCN1C(=O)C2C3CC(C2C1=O)C1C(c2ccccc2)c2sc(=O)[nH]c2SC31 (centres unmarked) | 4.78
26 | CCOc1ccc(C(=O)/C=C/c2ccc(SC)cc2)cc1 | -3.35
27 | CCCS(=O)(=O)c1c(S(=O)(=O)CCC)c2c(N)cccn2c1C(=O)c1ccc(F)cc1 | 9.49
28 | COc1ccc(C)cc1S(=O)(=O)NCC(c1ccc2c(c1)OCO2)N1CCOCC1 (centres unmarked) | 5.86
29 | O=C(/C=C/c1ccc2c(c1)OCO2)Nc1nc2ccccc2s1 | -0.327
30 | COC(=O)CSc1nnc(CNC(=O)c2cccc(C)c2)n1-c1ccccc1OC | 13.2
31 | Cc1ccn2c(=O)nc(SCC(=O)N3CCCC3)nc2c1 | -1.63
32 | CCC(C)(C)C1CCc2c(sc(N)c2C(N)=O)C1 (centres unmarked) | -12.1
33 | Cc1ccc(C)c(NC(=O)c2ccc3ccccc3n2)c1 | -8.85
34 | CC(C)Sc1nc2c(c(=O)n1C)SC(C)C2 (centres unmarked) | 8.29
35 | CSc1nc(N)nc(SCC(=O)Nc2cccc(F)c2)c1C#N | 11.5
36 | COCCN(C(=O)COC(=O)CCOc1ccccc1C)c1c(N)n(Cc2ccccc2)c(=O)[nH]c1=O | 6.67
37 | CC(O)c1n(C)c(Cl)c[n+]1C.[I-] (centres unmarked) | 0.0498
38 | O=C(CN1C(=O)NC(c2ccccc2)(c2ccccc2)C1=O)NC1CCS(=O)(=O)C1 (centres unmarked) | 11.2
39 | CNC(=S)NNC(=O)c1cccs1 | 11.4
40 | CCC1(c2ccc(F)cc2)NC(=O)N(CC(=O)Nc2cccc(S(=O)(=O)N3CCCCC3)c2)C1=O (centres unmarked) | 7.29
41 | Oc1c(I)cc(Cl)c2cccnc12 | 15.6
42 | COc1cc(-c2cc(C(=O)Nc3nc4ccccc4s3)c3ccccc3n2)cc(OC)c1OC | 17.7
43 | CCOc1ccc(NC(c2ccccc2)P(=O)(OC)OC)cc1 (centres unmarked) | 7.41
44 | Cc1c(/C=N\NC(=O)c2c[nH]c3ccccc23)cnn1C | 10.4
